The inconclusive results got no clear call from the source; some entries with a clear call stand among them for comparison. For some assays here: Potencies beside an inconclusive call are fits to weak or partial responses and may not hold up. Activity calls are given as the source filed them. Unless noted, calls come from the whole dose curve; as a rule, active = well fitted curve in the direction sought with a large enough effect; inconclusive = small, poorly fitted or top-dose-only effect, or another doubt; inactive = no such curve, though single readings can be large; an effect the other way counts as inactive or inconclusive.
How the values were obtained:
[1] = target: Aldehyde dehydrogenase, mitochondrial (Homo sapiens) (UniProt P05091); assay: qHTS for Inhibitors of the Aldehyde Dehydrogenase Family (ALDH2) Confirmatory screens (AID 2061303; active = well fitted inhibition curve with a large enough effect; inconclusive = small, poorly fitted or top-dose-only effect; inactive = no such curve, though single readings can be large or run the other way; title and protocol of this record describe different tests; note: nearly all actives have a fitted effect of over 45% in size); conditions: ALDH inhibition qHTS; activity change, negative = inhibition: at 45.4 µM (top of the series)
[2] = qHTS for Inhibitors of the Aldehyde Dehydrogenase Family (ALDH1A2, ALDH1A3, ALDH2, ALDH3A1) (AID 2061307); conditions: ALDH inhibition qHTS; activity change, negative = inhibition: at 50.3 µM (top of the series) unless noted; note: nearly all actives have a fitted effect of over 50% in size; for Potency: test system not described further here
[3] = target: Aldehyde dehydrogenase, mitochondrial (Homo sapiens) (UniProt P05091); assay: qHTS for Inhibitors of the Aldehyde Dehydrogenase Family (ALDH2) Primary screen (AID 2061308); note: nearly all actives have a fitted effect of over 55% in size
[4] = target: Retinal dehydrogenase 2 (Homo sapiens) (UniProt O94788); assay: qHTS for Inhibitors of the Aldehyde Dehydrogenase Family (ALDH1A2) Confirmation screens (AID 2061314); conditions: activity, negative = inhibition: at 45.9 µM (top of the series) unless noted; note: nearly all actives have a fitted effect of over 65% in size
[5] = target: Retinaldehyde dehydrogenase 3 (Homo sapiens) (UniProt P47895); assay: qHTS for Inhibitors of the Aldehyde Dehydrogenase Family (ALDH1A3) Primary screen (AID 2061315); conditions: ALDH inhibition qHTS; activity change, negative = inhibition: at 56 µM (top of the series) unless noted
[6] = target: Aldehyde dehydrogenase 1A1 (Homo sapiens) (UniProt P00352); assay: qHTS for Inhibitors of the Aldehyde Dehydrogenase Family (ALDH1A1) Confirmatory screens (AID 2061316); conditions: activity change, negative = inhibition: at 47.3 µM (top of the series); note: nearly all actives have a fitted effect of over 65% in size
Potency is the fitted concentration of half-maximal effect; tags give direction and shape of the fitted curve.

SMILES | Potency [1] | Potency [2] | Potency [3] | Potency [4] | Potency [5] | Potency [6]
CC(=O)Nc1sc2c(c1-c1cccc3[nH]ncc13)CCNC2 | inconclusive: 10.1 µM [inhibitor, partial curve] | inconclusive: 3.98 µM [inhibitor, full curve, poor fit] | inconclusive: 31.6 µM [inhibitor, partial curve, poor fit] | active: 10.1 µM | inconclusive: 6.31 µM [inhibitor, partial curve] | active: 11.3 µM
Cc1ccc(S(=O)(=O)Nc2cc(S(=O)(=O)c3ccc(C)cc3)c(O)c3cccnc23)cc1 | inconclusive: 4 µM [inhibitor, partial curve] | inconclusive: 3.57 µM [inhibitor, partial curve] | inconclusive: 1 µM [inhibitor, full curve] |  | inconclusive: 3.55 µM [inhibitor, full curve] | 
Cc1ccc(S(=O)(=O)Nc2cnccc2C(=O)Nc2nc(C(=O)O)cs2)cc1 | inconclusive: 15.9 µM [inhibitor, partial curve, poor fit] | inactive | inconclusive: 17.8 µM [inhibitor, partial curve, poor fit] | inactive |  | inconclusive: 22.5 µM [inhibitor, single point]
O=C(c1ccccc1O)N(Cc1ccco1)Cc1ccco1 | inconclusive: 12.7 µM [inhibitor, partial curve] | inconclusive: 22.5 µM [inhibitor, partial curve] | inconclusive: 31.6 µM [inhibitor, partial curve] | active: 11.3 µM |  | inconclusive: 17.9 µM [inhibitor, partial curve]

Reference: PubChem BioAssay (NCATS)
